# Laboratory results published in article PMC4336329 (PLoS ONE, 2015).
# Out of some 310,000 compounds screened, about 14,000 (4.5%) showed an effect of 50% or more. Effects have a minus sign here. Some of the results follow.
# Biological target: human ether-à-go-go-related gene (hERG) potassium channel (human, UniProt Q12809)
# Experiment: primary screen, population patch clamp on CHO cells stably expressing hERG
# 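Also: peak tail current of the secondary pulse compared with the same well before compound.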
# human ether-à-go-go-related gene (hERG) potassium channel, sequence (Q12809 whole entry, looked up): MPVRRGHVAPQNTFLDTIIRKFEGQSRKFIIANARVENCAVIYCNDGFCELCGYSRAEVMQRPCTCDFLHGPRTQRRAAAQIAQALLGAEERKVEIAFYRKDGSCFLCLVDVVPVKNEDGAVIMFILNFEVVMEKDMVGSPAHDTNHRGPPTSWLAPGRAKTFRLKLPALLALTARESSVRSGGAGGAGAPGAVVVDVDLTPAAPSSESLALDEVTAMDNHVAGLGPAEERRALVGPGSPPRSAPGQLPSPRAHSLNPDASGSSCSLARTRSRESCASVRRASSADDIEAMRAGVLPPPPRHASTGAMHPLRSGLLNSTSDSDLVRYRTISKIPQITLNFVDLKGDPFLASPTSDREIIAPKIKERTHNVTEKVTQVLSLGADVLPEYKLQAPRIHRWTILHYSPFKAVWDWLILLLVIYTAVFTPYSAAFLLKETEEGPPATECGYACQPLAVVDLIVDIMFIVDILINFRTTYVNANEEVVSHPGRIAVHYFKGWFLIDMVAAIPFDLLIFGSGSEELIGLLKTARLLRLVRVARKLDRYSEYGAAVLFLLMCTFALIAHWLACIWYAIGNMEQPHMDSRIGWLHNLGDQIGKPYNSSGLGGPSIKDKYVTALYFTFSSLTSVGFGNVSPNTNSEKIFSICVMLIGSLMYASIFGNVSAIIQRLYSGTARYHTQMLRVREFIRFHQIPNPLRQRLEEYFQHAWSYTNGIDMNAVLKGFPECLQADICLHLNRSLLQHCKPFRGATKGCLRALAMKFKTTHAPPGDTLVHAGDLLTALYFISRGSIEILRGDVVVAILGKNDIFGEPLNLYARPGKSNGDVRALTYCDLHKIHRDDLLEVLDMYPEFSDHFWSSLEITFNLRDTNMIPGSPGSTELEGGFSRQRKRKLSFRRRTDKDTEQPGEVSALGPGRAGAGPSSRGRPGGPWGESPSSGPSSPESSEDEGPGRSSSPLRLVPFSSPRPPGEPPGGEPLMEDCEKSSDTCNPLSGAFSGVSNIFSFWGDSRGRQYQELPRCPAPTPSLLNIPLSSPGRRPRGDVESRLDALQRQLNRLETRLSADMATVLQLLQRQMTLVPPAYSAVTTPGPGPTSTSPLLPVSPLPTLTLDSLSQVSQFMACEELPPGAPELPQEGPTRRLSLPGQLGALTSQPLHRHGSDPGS
row,Compound,"hERG current change (%, negative = inhibition) at 10uM [%]"
1,Cc1ccc2nc(C3CCCN(C(=O)NCc4ccccc4)C3)[nH]c2c1 (stereo not drawn),-33.8
2,O=C(N/N=C/c1cccnc1)c1cc(-c2ccc(Br)cc2)nc2ccccc12,3.47
3,CCC(=O)NC(C)C(c1cccs1)N1CCOCC1 (stereo not drawn),2.49
4,CC(=O)CC(=O)NC(=NC1CCCCC1)Nc1nc(C)cc(C)n1,7.01
5,Cc1nc2ccccc2c2ncccc12,-5.7
6,COc1ccc2cc(CCNC(=O)c3cc4ccccc4o3)c(=O)[nH]c2c1,-21.3
7,Cc1ccc(N2C(=O)CSC2c2c(F)cccc2Cl)cc1 (stereo not drawn),-11.9
8,COC(=O)C1=C(C(=O)c2ccc(C)cc2)C(c2ccc(O)c(OC)c2)n2nnnc2N1 (stereo not drawn),12.8
9,O=C(CCn1c(=O)sc2ccccc21)NCc1ccco1,-1.23
10,CC(C)=C(NC(=O)c1ccccc1)C(N)=O,-6.55
11,CCC(=O)N1CCN(c2ccccc2NC(=O)COc2ccc(C(C)C)cc2)CC1,-31.1
12,O=C(CSc1cccc[n+]1[O-])Nc1cc(S(=O)(=O)N2CCOCC2)ccc1N1CCOCC1,16
13,Cc1cccc(C(=O)O/N=C(/c2ccccc2)c2ccncc2)c1,-14.7
14,C=C1CCN([C@@H](CC(C)C)C(=O)NCc2cc(OC)c(OC)c(OC)c2)S(=O)(=O)c2ccccc21,7.02
15,Cc1ccc(NS(=O)(=O)c2c(C(=O)N3CCOCC3)c(C)n(C)c2C)cc1,20.3
16,CCCOc1ccc(OCCNC2CCCC2)cc1,-29.2
17,CCc1ccc(-c2nc(NC(=O)c3ccc(OCC(=O)Nc4ccc(F)cc4)c(OC)c3)sc2C)cc1,8.14
18,CN(Cc1ccccc1)C(=O)c1nc2ccccn2c1CN1CCc2sccc2C1,-47.6
19,O=C1C2Sc3[nH]c(=O)sc3C(c3ccccc3)C2C(=O)N1c1ccccc1 (stereo not drawn),-2.84
20,COc1ccc(OC)c(-n2c(SCC(=O)NCc3ccco3)nnc2-c2c[nH]c3ccccc23)c1,-19.1
21,COc1ccc(C2=NOC(C(=O)Nc3cc(C)on3)C2)cc1 (stereo not drawn),6.33
22,COc1cccc(N2CCN(C(=O)c3ccccc3SCC(=O)NCc3ccco3)CC2)c1,-12.4
23,COc1cccc(NC(=O)[C@@H]2CCC(=O)N2C2OC(=O)c3ccccc32)c1 (stereo partly drawn),-2.49
24,COc1ccc(Cc2noc(CN(C)CC(O)c3ccccc3)n2)cc1OC (stereo not drawn),-3.91
